Experimental data from a compilation of properties of binary mixtures (doi:10.1021/acs.iecr.0c01893).
Some of these densities may be calculated back from excess volumes.

Experiment: xn = mol fraction of the nth substance listed
Conditions: 100 kPa

In the case of `CCCC[N+](CCCC)(CCCC)CCCC.O=S(=O)([O-])C(F)(F)C(F)(F)C(F)(F)C(F)(F)F` + O=C(O)C(F)(F)C(F)(F)C(F)(F)C(F)(F)F, the mass density (293.15 K, x1 = 0.333) is reported as 1400.9 kg/m3, the mass density (293.15 K, x1 = 0.5) is reported as 1351.7 kg/m3 and the mass density (293.15 K, x1 = 0.667) is reported as 1306.6 kg/m3. The mass density (303.15 K, x1 = 0.5) was 1341.4 kg/m3, the mass density (303.15 K, x1 = 0.667) was 1298.5 kg/m3 and the mass density (313.15 K, x1 = 0.5) was 1331.1 kg/m3. It also gave a mass density (313.15 K, x1 = 0.667) of 1289.3 kg/m3, a mass density (323.15 K, x1 = 0.5) of 1320.8 kg/m3 and a mass density (323.15 K, x1 = 0.667) of 1279.5 kg/m3.
With `CC[n+]1ccn(C)c1.O=S(=O)([O-])C(F)(F)C(F)(F)C(F)(F)C(F)(F)C(F)(F)C(F)(F)C(F)(F)C(F)(F)F` + O=C(O)C(F)(F)C(F)(F)C(F)(F)C(F)(F)F the mass density (293.15 K, x1 = 0.333) was 1689.3 kg/m3, the mass density (293.15 K, x1 = 0.5) was 1672.1 kg/m3 and the mass density (303.15 K, x1 = 0.333) was 1673.9 kg/m3. For the same compound, the mass density (303.15 K, x1 = 0.5) was 1662 kg/m3, the mass density (303.15 K, x1 = 0.667) was 1673.2 kg/m3 and the mass density (313.15 K, x1 = 0.333) was 1656.4 kg/m3. The mass density (313.15 K, x1 = 0.5) was 1649 kg/m3, the mass density (313.15 K, x1 = 0.667) was 1660.8 kg/m3 and the mass density (323.15 K, x1 = 0.5) was 1635.1 kg/m3. For the same compound, the mass density (323.15 K, x1 = 0.667) was 1647.7 kg/m3.
With `C[N+](C)(C)CCO.O=S(=O)([O-])C(F)(F)C(F)(F)C(F)(F)C(F)(F)F` + O=C(O)C(F)(F)C(F)(F)C(F)(F)C(F)(F)F the mass density (293.15 K, x1 = 0.5) was 1633.6 kg/m3, the mass density (303.15 K, x1 = 0.5) was 1621 kg/m3 and the mass density (313.15 K, x1 = 0.5) was 1608.7 kg/m3. The mass density (323.15 K, x1 = 0.5) was 1596.4 kg/m3.
